# Hit rate of the full screen: of about 43,000 compounds, about 200 (0.47%) were called active. Roughly 12% stayed inconclusive and do not appear here. Calls come from the whole dose curve; as a rule, active = well fitted cell-killing curve with a large enough effect; inconclusive = small, poorly fitted or top-dose-only effect, or effect the other way; inactive = flat fitted curve, though single readings scatter. This is one part of the list.
# Assay: Cell viability qHTS assay in S16 Pmp22-F2sN cells; note: nearly all actives have a fitted effect of over 65% in size
# Conditions: S16 Pmp22-F2sN Schwann cells (luciferase reporters placed in the Pmp22 gene) viability, CellTiter-Glo, 24 h; series mostly up to 57.5 µM; activity change, negative = cytotoxicity: at the top concentration
# Excerpt: Assay Provider: Jim Inglese Ph.D. National Center for Advancing Translational Science, National Institutes of Health, Rockville, MD CMT is a heterogeneous group of neurological disorders that affect approximately 1 in 2,500 people. In particular, the most common form of CMT, CMT1A is genetically linked to the duplication of the PMP22 gene which leads to Schwann cell overexpression, thus manifesting itself as a typical case of dose-sensitive diseases. To identify small molecule compounds that can mediate the expression of PMP22 we developed a phenotypic assay screening strategy by utilizing genome editing techniques to construct Schwann cell lines containing novel reporter technology to monitor the transcriptional or translational regulation of PMP22. For high sensitivity we use a bioluminescent reporter system embedded in the 3' UTR of the PMP22 gene (S16(c9) Pmp22-F2sN) to identify compounds that inhibit gene expression. […] We can further discriminate the effect of all transcriptionally active molecules on PMP22 translation or stability with an assay that incorporates a short NLuc peptide (HiBiT) at the C-terminus of expressed PMP22 (S16(f8) PMP22-HiBiT) allowing alpha complementation and luminescence detection of membrane-associated PMP22 protein. These assays were screened against the NCATS Sytravon Library Collection. Miniaturization of these assays to 1536-well plate format for quantitative high throughput screening (qHTS) yielded rich data sets immediately from the qHTS assay (S16(c9) Pmp22-F2sN), when compared with data from a cell viability assay (Cell TiterGlo) to identify compounds that decreased the output signals through cellular toxicity to streamline the selection process of actives for subsequent characterization using the HiBiT assay (S16(f8) PMP22-HiBiT).
# Cell viability assay in S16 Pmp22-F2sN cells PROTOCOL TABLE (format as described by Inglese J, Shamu CE and Guy RK. 2007) SEQUENCE No. (e.g., 1, 2, 3, etc.); […] (e.g., Cells, Incubation, Reagent, etc.); VALUE and DESCRIPTION. 1. Cells. Add 500-1,000 cells in 4 uL in growth media (DMEM High Glucose, No Phenol Red media + 10% heat-inactivated FBS + 1% Pen/Strep supplemented media) per well into Greiner 1536-well white/solid bottom high base, TC-treated plates. 2. Compounds. Library compounds and controls added at 23nL per well, transferred by Pin Tool. 3. Incubation. Incubate plates at 37C, 5% CO2, 95% RH for 24 h. 4. Reagent. Add 3uL CellTiter-Glo per well of Greiner 1536-well plates. 5. Incubation. Incubate plates at room temperature for 15 min., protect from light. 6. Detector. FLuc luminescence measured using CCD-based camera (Viewlux). NOTES (numbers refer to Sequence numbers above; values are from representative experiments) 6. Luminescence Read: Clear filter; Exposure = 1 sec, Gain = High, Speed = Slow, Binning = 2X REFERENCES: 1. Inglese J, Shamu CE and Guy RK, Reporting data from high throughput screening of small molecule libraries, Nature Chemical Biology, 2007, 3(8): 438-441. doi.org/10.1038/nchembio0807-438 2. Yasgar A, Shinn P, Jadhav A, Auld DS, Michael S, Zheng W, Austin CP, Inglese J and Simeonov A, Compound Management for Quantitative High-Throughput Screening. J. Assoc. Lab. Auto., 2008, 13: 79-89. doi: 10.1016/j.jala.2007.12.004
# % is set by controls: 0 for no effect and ±100 for the full control effect.
row,SMILES,"activity change, negative = cytotoxicity"
1,COc1cccc(NC(=O)c2ccc3c(=O)n4nc(Nc5ccccc5OC)sc4nc3c2)c1,inactive: 15.2%
2,COCCCNC(=O)c1ccc(Cn2c(=O)c3ccccc3n(Cc3ccc(C)cc3)c2=O)cc1,inactive: 15.5%
3,Cc1ccc2cccc(NC(=O)c3ccc(-c4ccc(Cl)cc4Cl)o3)c2n1,inactive: -1.22%
4,O=C(CCNS(=O)(=O)c1cccc2nsnc12)Nc1ccc(F)cc1,inactive: -5.62%
5,COc1ccc(-c2nc3cc(NC(=O)COc4ccc(F)cc4)ccc3o2)cc1,inactive: 13.2%
6,Cc1csc2nc(-c3cccc(NC(=O)c4ccc(S(N)(=O)=O)cc4)c3)cn12,inactive: 29.2%
7,COc1ccc(S(=O)(=O)NCCc2sc(-c3ccccc3)nc2C)cc1OC,inactive: 1.71%
8,CCOC(=O)N1CCC(NC(=O)c2cnn(-c3ccccc3)c2C2CCN(C(=O)OC(C)(C)C)CC2)CC1,inactive: 0.823%
9,O=C(NCCC1=CCCCC1)c1ccc2c(c1)ncn2-c1cccc(Cl)c1,inactive: 3.86%
10,CCc1ccccc1NC(=O)CSc1ncc2c(n1)-c1ccccc1N(C)S2(=O)=O,inactive: -4.01%
11,CCOc1ccc(-c2cc(C)n3nc(C(=O)Nc4cc(Cl)ccc4O)cc3n2)cc1,inactive: 0.89%
12,COc1cccc(NC(=O)Cn2c(=O)n(Cc3nc(-c4ccccc4)no3)c(=O)c3ccccc32)c1,inactive: 1.39%
13,COc1ccccc1/C=C(\C#N)c1nc(-c2cc3ccccc3oc2=O)cs1,inactive: 19.2%
14,COc1ccc(OC)c(CNC(=O)CCS(=O)(=O)c2ccc3c(c2)oc(=O)n3C)c1,inactive: -1.25%
15,Cc1ccc(NC(=O)[C@H](CSCc2ccccc2)N2Cc3ccccc3C2=O)cc1,inactive: 1.19%
16,CCN(C(=O)C(NS(=O)(=O)c1cccc2nsnc12)c1ccccc1)c1ccccc1 (stereo not drawn),inactive: -9.8%
17,COCCCNC(=O)CCCN1C(=O)CCn2nc(-c3cn(C)c4ccccc34)cc21,inactive: 2.32%
18,COc1ccc(-c2ccnc3c2c(=O)n(C)c(=O)n3C)cc1OC,inactive: 2.94%
19,CC1CCN(S(=O)(=O)c2cccc(C(=O)NC3CCS(=O)(=O)C3)c2)CC1 (stereo not drawn),inactive: 2.54%
20,Cc1cc(C)c(NC(=O)CN2C(=O)c3cccnc3Oc3ccc(Cl)cc32)c(C)c1,inactive: 7.77%
21,Cc1ccc(C(=O)N2c3nc(-c4ccco4)nn3C3(CCCCC3)[C@@H]3CCCC[C@@H]32)cc1,inactive: -9.23%
22,Cc1cc(Nc2ccc(C)c(Cl)c2)n2nc(-c3ccccc3)nc2n1,inactive: 1.15%
23,COc1ccc(CNC(=O)CCS(=O)(=O)c2cc(Br)cc3c2N(C(=O)C2CC2)CC3)cc1,inactive: -0.0449%
24,COC(=O)c1ccc(OCC2c3cc(OC)c(OC)cc3CCN2C(=O)c2cccc(C)c2)cc1 (stereo not drawn),inactive: -11%

row,SMILES,"activity change, negative = cytotoxicity"
1,COc1cccc(N2CCN(C(=O)CN3CCSc4ccc(S(=O)(=O)N(C)C)cc43)CC2)c1,inactive: -0.722%
2,COc1ccc(NC(=O)C2CCN(C3=NS(=O)(=O)C(c4ccc(C)c(C)c4)=C3C)CC2)cc1OC,inactive: -2.43%
3,O=C(Cn1nc(Cc2cccnc2)c2ccccc2c1=O)N1CCN(c2ccc(F)cc2)CC1,inactive: 1.59%
4,CCCSCCCNC(=O)C1CCCN(C(=O)c2cnn(-c3ccccc3)c2-n2cccc2)C1 (stereo not drawn),inactive: -0.592%
5,COc1ccc(Nc2ncnc3onc(C)c23)cc1Cl,inactive: 2.5%
6,COc1cccc(CNC(=O)Cn2c(=O)n3nc(-c4cccc(C)c4)nc3c3ccccc32)c1,inactive: 4.76%
7,CCCCN(Cc1ccccc1)S(=O)(=O)c1ccc2c(c1)CCN2C(=O)C1CCC1,inactive: 19.8%
8,Cc1ccc(CCNC(=O)c2ccc3c(c2)N(Cc2cc(C)ccc2C)C(=O)c2ccccc2S3=O)cc1 (stereo not drawn),inactive: 1.87%
9,CCN(CC)c1ccc(NC(=O)CN2C(=O)c3cccnc3Oc3ccccc32)c(C)c1,inactive: -10.4%
10,Cc1ccc(/C=C/c2onc(C)c2S(=O)(=O)N2CCC(C(=O)NCc3ccco3)CC2)cc1,inactive: 21.8%
11,COc1ccc2c(c1)NC(c1ccc(F)cc1)=NC(c1ccc(F)cc1)=N2,inactive: -4.77%
12,Cc1ccc(S(=O)(=O)NCCSc2nnnn2-c2ccccc2)cc1,inactive: -4.31%
13,COc1ccc2c(c1)NC(c1ccc(Cl)cc1)=NC(c1cccs1)=N2,inactive: 8.87%
14,CC1=C(C(=O)Nc2ccccc2)C(c2ccc(O)cc2)n2nc(-c3ccc(Cl)cc3)nc2N1 (stereo not drawn),inactive: -11.9%
15,Cc1ccc(C)c(Cn2c(=O)n(Cc3ccccc3)c(=O)c3sc4ccccc4c32)c1,inactive: 0.937%
16,CC(C)(C)c1ccc(-c2nnc(-c3ccccc3NC(=O)c3cccc(C(F)(F)F)c3)o2)cc1,inactive: 8.68%
17,COc1ccc(NC(=O)CSc2cn(CCNC(=O)c3ccc(OC)cc3)c3ccccc23)cc1,inactive: 2.29%
18,COc1cccc(/C=C(\C#N)C(=O)Nc2ccc(NC(C)=O)cc2)c1OC,inactive: 5.75%
19,Cc1ccc(CN2C(=O)C3(c4ccccc42)N(c2ccc(C)c(Cl)c2)C(=O)CS3(=O)=O)cc1 (stereo not drawn),inactive: 3.66%
20,COc1ccc(Br)cc1CNC(=O)CSc1n[nH]c(-c2ccccc2)n1,inactive: -9.27%
21,CCC(C)[C@H](N)c1nnc(SCc2ccc(Cl)c(Cl)c2)o1 (stereo partly drawn),inactive: 2.48%
22,COc1ccc(NC(=O)CCS(=O)(=O)c2ccc3c(c2)n(C)c(=O)c(=O)n3C)cc1Cl,inactive: 0.0136%
23,CCOc1ccccc1Nc1nc2c(S(=O)(=O)c3ccc(C)cc3)nnn2c2ccsc12,inactive: -3.17%
24,CCc1ccc(NC(=O)CN2C(=O)CC(c3ccccc3)Sc3ccccc32)cc1 (stereo not drawn),inactive: 17.9%

row,SMILES,"activity change, negative = cytotoxicity"
1,CC(C)(C)OC(=O)N1CCC(c2c(C(=O)NCCN3CCOCC3)cnn2-c2ccc(F)cc2F)CC1,inactive: 3.52%
2,COc1ccc(-c2cccc(NS(=O)(=O)c3ccc(NC(C)=O)cc3)c2)nn1,inactive: -24.9%
3,CCCCCNC(=O)C1CCC(Cn2c(=O)c3sccc3n(CC)c2=O)CC1 (stereo not drawn),inactive: -21.4%
4,CCc1cccc(C)c1NC(=O)CN1C(=O)c2cccc3cccc1c23,inactive: 10.9%
5,CCOc1cc(/C=C(\C#N)C(=O)Nc2ccc(OC)cc2)ccc1OCc1cc(=O)n2nc(CC)sc2n1,inactive: 1.54%
6,Cc1ccc2nc(CSc3nnc(NC(=O)c4ccc(C(C)(C)C)cc4)s3)cc(=O)n2c1,inactive: -7.8%
7,CC(=O)Nc1ccc(NC(=O)c2ncoc2-c2ccco2)cc1,inactive: -1.11%
8,Cc1ccc(-c2nc3scc(CCNS(=O)(=O)c4ccc(Oc5ccccc5)cc4)n3n2)cc1,inactive: -21.5%
9,CCc1ccccc1NC(=O)Nc1ccc2snnc2c1,inactive: -27.3%
10,CCC(CC)C(=O)N1CCc2cc(OC)c(OC)cc2C1COc1ccc(F)cc1 (stereo not drawn),inactive: 0.184%
11,O=C(CSCc1ccc(F)cc1)NCc1ccc(F)cc1,inactive: -7.79%
12,Cc1cccc(CC(=O)N2CC(=O)Nc3ccc(F)cc3C2c2ccccc2)c1 (stereo not drawn),inactive: -0.527%
13,Cc1ccc(CNC(=O)CSc2c(C(C)C)cnc3c2c(=O)n(C)c(=O)n3C)cc1,inactive: 2.59%
14,COc1cc(NC(=O)CCCc2nnc3n(C)c(=O)c4sccc4n23)cc(OC)c1OC,inactive: 14.4%
15,O=C(CSc1nc(Nc2ccc(F)c(F)c2)c2ccccc2n1)c1ccc(Cl)cc1,inactive: 15.4%
16,Cc1cccc(-n2ncc(C(=O)NCc3ccc4c(c3)OCO4)c2C2CCN(C(=O)OC(C)(C)C)CC2)c1,inactive: -0.323%
17,O=C(CSc1oc(-c2ccco2)nc1S(=O)(=O)c1ccc(Cl)cc1)Nc1ccc(F)cc1,inactive: 1.19%
18,CCCCCCC1CCC(C(=O)NC(C(=O)O)C(C)C)CC1 (stereo not drawn),inactive: 3.6%
19,COc1ccc(-c2nc3ccccc3n3c(-c4ccccc4)c4c(=O)n(C)c(=O)n(C)c4c23)cc1,inactive: -0.566%
20,COc1ccc2c(Sc3ccc(Cl)cc3)c(C(=O)N3CCCCC3)[nH]c2c1,inactive: -1%
21,Cc1ccc(N2C(=O)CSC23C(=O)N(CC(=O)Nc2ccccc2F)c2ccccc23)cc1C (stereo not drawn),inactive: -18.9%
22,Cc1ccc(CNC(=O)c2ccc(CS(=O)(=O)c3ccccc3C)o2)cc1,inactive: -0.956%
23,CCOC(=O)CSc1nc2cc3c(cc2c(=O)n1CCCCCC(=O)NCc1ccc(OC)cc1)OCO3,inactive: 14.3%
24,CN(C)c1ccc(CNC(=O)c2ccc3nc(CCc4ccccc4)oc3c2)cc1,inactive: 13.4%

row,SMILES,"activity change, negative = cytotoxicity"
1,CCOc1ccc(NC(=O)c2oc3ccccc3c2NC(=O)c2cc3ccccc3o2)cc1,inactive: 9.78%
2,COc1ccccc1NC(=O)Cn1c(=O)n(-c2ccc(C)cc2)c(=O)c2c1cnn2C,inactive: 3.4%
3,Cc1ccc(/C=C/c2onc(C)c2S(=O)(=O)N2CCC(C(=O)N(CCC(C)C)Cc3ccco3)CC2)cc1,inactive: -0.292%
4,COc1ccc(N2CCN(CCCNC(=O)c3ccc4nc(N5CCCCC5)sc4c3)CC2)cc1,inactive: -0.682%
5,CCc1cccc(NC(=O)CCNS(=O)(=O)c2ccc3c(c2)CCN3C(C)=O)c1,inactive: -16.4%
6,CC(C)(C)c1ccc(-c2nnc(-c3ccccc3NC(=O)c3ccc(F)cc3F)o2)cc1,inactive: 0.949%
7,COc1ccc(-n2nc(C(=O)Nc3cccc(Cl)c3)c3c4ccccc4n(C)c3c2=O)cc1Cl,inactive: 9.23%
8,CCCSc1ncc(Cl)c(C(=O)N2CCN(c3ccc(OC)cc3)CC2)n1,inactive: 15.1%
9,CN(C(=O)c1nn(C)c2c1CS(=O)(=O)c1ccccc1-2)c1cccc(Cl)c1,inactive: 4.39%
10,Cc1ccc(N2C(=O)N(Cc3cccc(Cl)c3)c3ccccc3S2(=O)=O)cc1,inactive: -19.5%
11,CCC1CN(C(=O)Nc2cc(Cl)ccc2C(=O)OC)c2ccccc2S1 (stereo not drawn),inactive: 0.398%
12,COc1ccc(OC)c(NC(=O)COCc2cc(-c3ccc(F)cc3)on2)c1,inactive: -3.75%
13,Cc1ccc(C)c(Cn2c(=O)n(CCCC(=O)NCc3ccc4c(c3)OCO4)c(=O)c3sccc32)c1,inactive: -0.601%
14,CCOC(=O)c1sc(N2C(=O)c3oc4ccc(F)cc4c(=O)c3C2c2ccc(O)cc2)nc1C (stereo not drawn),inactive: 3.24%
15,CCC(C)c1ccc(OCC(=O)Nc2ccc(-c3nc4ncccc4o3)cc2)cc1 (stereo not drawn),inactive: 4.24%
16,CC(C)Oc1ccc(C(=O)N2CCCCC2CCN2CCCCC2)cc1 (stereo not drawn),inactive: 9.69%
17,Cc1cc(F)ccc1NC(=O)c1c(C)oc2c1C1=NCCN1C=N2,inactive: 1.72%
18,O=C(NCc1ccc(Cl)cc1Cl)c1cccc(N2CCCS2(=O)=O)c1,inactive: 6.02%
19,COc1ccccc1-n1c(=O)n(C)c2c(C(N)=O)nc(-c3cc(OC)c(OC)c(OC)c3)nc21,inactive: 9.42%
20,COc1cc2c(cc1NC(=O)C(C)Oc1ccccc1)oc1ccccc12 (stereo not drawn),inactive: -16.3%
21,Cc1cc(C)c2c(N)c(C(=O)Nc3ccccc3C(F)(F)F)sc2n1,inactive: -1.03%
